Inconclusive results are not listed. For part of its entries the source gives two or more results. This is not the full list of results. There may be further records. Results that share an entry are repeats across runs, samples, wells, individuals or studies. A tag in brackets gives the origin of a value. A, B and so on number the origins entry by entry.
Molecular target: Scavenger receptor class B member 1 (Mus musculus) (UniProt Q61009)
Test: modulators of Alexa488-HDL binding to SR-BI, dose response, orthogonal assay for SR-BI HDL uptake inhibitor project, cell-based, ldlA[mSR-BI] CHO, Alexa 488-HDL, powder samples, set 3 (AID 624024)
Conditions: ldlA[mSR-BI] CHO cells, Alexa488-HDL binding fluorescence, 3 h

Chain of UniProt Q61009 (Q61009 whole entry, looked up): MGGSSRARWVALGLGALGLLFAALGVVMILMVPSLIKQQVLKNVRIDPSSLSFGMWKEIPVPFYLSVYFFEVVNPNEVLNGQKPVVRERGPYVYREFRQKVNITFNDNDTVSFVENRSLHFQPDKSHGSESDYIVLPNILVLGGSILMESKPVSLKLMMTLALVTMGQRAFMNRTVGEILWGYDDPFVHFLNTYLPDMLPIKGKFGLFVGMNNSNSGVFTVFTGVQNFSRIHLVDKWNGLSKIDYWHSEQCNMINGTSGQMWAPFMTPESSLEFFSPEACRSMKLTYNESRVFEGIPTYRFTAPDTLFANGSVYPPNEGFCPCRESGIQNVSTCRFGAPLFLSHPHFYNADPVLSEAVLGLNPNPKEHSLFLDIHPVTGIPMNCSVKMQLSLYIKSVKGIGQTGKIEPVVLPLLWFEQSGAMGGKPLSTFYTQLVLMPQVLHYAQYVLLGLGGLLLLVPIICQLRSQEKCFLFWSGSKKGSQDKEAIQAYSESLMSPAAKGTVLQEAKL

## CC(C)NC(=O)Nc1ccc2c(c1)C(=O)N([C@H](C)CO)C[C@@H](C)[C@H](CN(C)S(=O)(=O)c1ccc(Cl)cc1)O2
  AC40: 18.6 nM [sample A] and 10.3 nM [sample B] and 442 nM [sample C]

— PubChem BioAssay AID624024 (Broad Institute, 2012)
